Test results as given in PubChem BioAssay AID463173 (ICCB-Longwood Screening Facility, Harvard Medical School, 2010).
Out of some 52,000 compounds screened, about 4,300 (8.3%) were called active. No stated cut-off is given here; in the data, active means survival mostly below about 52% (no sharp cut-off); inactive means mostly above about 56%. This is one part of the list.

The molecules below were run on DeltatarO mutant (assay: growth inhibition of S. aureus wild type versus tarO mutant, primary screen, teichoic acid synthesis inhibitors, RN4220, OD600 (AID 463173)). Conditions: OD600, 18 h, hits give low values, screened at 18.75 µg/mL (by protocol).

Compound	survival
CCOc1ccc(Oc2nc(NCC(C)C)nc(N3CCOCC3)n2)nn1	inactive: 79%
CC(Oc1ccc(F)cc1)C(=O)N1CCC(c2nc3ccccc3s2)CC1 (centres undefined)	inactive: 58%
N#Cc1c(NC(=O)COC(=O)c2cccs2)sc2c1CCC2	inactive: 94%
Cn1ncc2c(N3CCN(c4cccc(Cl)c4)CC3)ncnc21	inactive: 73%
CCOC(=O)N1CCc2c(sc(NCc3sccc3C)c2C(=O)Nc2ccc(OC)cc2OC)C1	inactive: 94%
Cc1cc(C)cc(NC(=O)C(Cc2ccccc2)NS(=O)(=O)c2ccc3c(c2)c(=O)n(C)c(=O)n3C)c1 (centres undefined)	inactive: 57%
O=C(Cn1c(=O)nc(-c2ccccc2)c2ccccc21)NCc1ccc(Cl)cc1	inactive: 90%
CCc1ccc(NC(=O)CCn2nc(C)c(S(=O)(=O)N3CCCCC3)c2C)cc1	inactive: 128%
COc1ccc(Cl)cc1C(=O)N1CCCC1	inactive: 100%
Cc1cc(C)cc(NC(=O)C(=O)NCC(c2cccnc2)N2CCc3ccccc3C2)c1 (centres undefined)	inactive: 73%
CCCCNC(=O)C1CCC(Cn2c(=O)c3sccc3n(CC(=O)N3CCCC3)c2=O)CC1 (centres undefined)	inactive: 112%
NS(=O)(=O)c1ccc(NC(=O)C2CCCO2)cc1 (centres undefined)	inactive: 95%
CCN1CCN(C(=O)c2ccc(S(=O)(=O)N(CC)CC)cc2)CC1	inactive: 85%
O=C(Nc1cc(C(F)(F)F)ccc1Cl)c1nc2ccccc2nc1N1CCCCC1	inactive: 85%
CCc1ccccc1NC(=O)c1sc2nc3c(cc2c1N)CN(Cc1ccccc1)CC3	inactive: 71%
CCOC(=O)c1c(C)oc2nc(C)nc(NCc3ccc(OC)cc3OC)c12	inactive: 97%
O=C(CSc1nncn2c1cc1sccc12)Nc1ccc(Br)cc1F	inactive: 61%
COC(=O)c1cccnc1-n1c(=O)c2cccnc2n(CC(=O)Nc2ccccc2F)c1=O	inactive: 86%
Nc1ccc(N2CCN(c3ncc(C(F)(F)F)cc3Cl)CC2)c(C(F)(F)F)c1	active: -5%
O=C(NCc1ccc(Cl)cc1)C(=O)NCC(c1cccs1)S(=O)(=O)c1cccs1 (centres undefined)	inactive: 90%
CCN(CC)C(=O)CSc1nc(-c2ccco2)cc(C(F)(F)F)c1C#N	inactive: 76%
O=C(C1CCCCC1)N(Cc1nc2sc3c(c2c(=O)[nH]1)CCCC3)Cc1cccs1	inactive: 66%

Compound	survival
CCOc1ccccc1NC(=O)C1CCN(S(=O)(=O)c2ccc3c(c2)CC(C)N3C(C)=O)CC1 (centres undefined)	inactive: 88%
CCOc1ccc(Cn2c(CNS(=O)(=O)c3ccc(Cl)s3)nc3cccnc32)cc1	inactive: 102%
COc1cccc(N2CCN(S(=O)(=O)c3ccc(-n4cnnn4)cc3)CC2)c1	inactive: 115%
COc1ccc2c(C)cc(SCC(=O)Nc3nsc(-c4ccccc4C)n3)nc2c1	active: 35%
CCOC(=O)c1ccccc1NC(=O)Cn1c(=O)n(-c2cccc(C)c2)c(=O)c2c1c1cc(C)ccc1n2C	inactive: 68%
O=C(NCC(c1ccc2c(c1)OCO2)N1CCOCC1)c1cccc(Cl)c1 (centres undefined)	inactive: 84%
COc1cc(C2C(C(=O)Nc3ccccc3C)=C(C)Nc3ncnn32)ccc1OCC(N)=O (centres undefined)	inactive: 82%
CC(C)(C#N)Nn1cnnc1	inactive: 101%
COc1ccc(-n2ncc(C(=O)NCCc3ccsc3)c2C2CCN(C(=O)OC(C)(C)C)CC2)cc1	inactive: 75%
COc1ccccc1C(=O)Nc1ccc(N2CCN(S(C)(=O)=O)CC2)cc1	inactive: 72%
Cc1ccc(Cn2c(CNS(=O)(=O)c3ccc(F)c(Cl)c3)nc3cccnc32)cc1	inactive: 126%
OCc1nc2ccc(-c3ccc4nc(CO)[nH]c4c3)cc2[nH]1	inactive: 51%
CC(C)(C)C(=O)NC1CCN(C(=O)NCc2ccccc2)CC1	inactive: 94%
Cc1cc(NC(=O)c2cccc(Cl)c2)ccc1-c1cc2ccccc2oc1=O	inactive: 73%
Cc1noc(-c2ccc(N3CCCCC3)c([N+](=O)[O-])c2)n1	inactive: 57%
Cc1ccccc1CCNC(=O)c1ccc2c(c1)nc1n2CCC(C)C1 (centres undefined)	inactive: 83%
COc1ccccc1C1Nc2ccccc2-n2c(-c3ccccc3)c3c(=O)n(C)c(=O)n(C)c3c21 (centres undefined)	inactive: 53%
Cc1ccc(NC(=O)CSc2ccc(-c3cccs3)nn2)cc1Cl	inactive: 111%
CN(c1ccccc1)S(=O)(=O)c1ccc(NC(=O)c2cc(=O)c3ccccc3o2)cc1	inactive: 57%
N#CSc1cnc(NC2CCCCC2)s1	active: 1%
COCC(=O)NCc1nc2cccnc2n1Cc1ccc(F)cc1	inactive: 60%
COc1ccc(Nc2cc(C(=O)NCCCN3CCN(c4ccc(OC)cc4)CC3)c3ccccc3n2)cc1	inactive: 73%
